Experimental data taken from PubChem BioAssay AID1460 (National Center for Advancing Translational Sciences (NCATS), 2008).
The whole screen tested about 270,000 compounds, of which about 5,800 (2.1%) were called active. The shares of active, inactive and inconclusive entries below differ from those in the screen. Calls come from the whole dose curve; as a rule, active = well fitted inhibition curve with a large enough effect; inconclusive = small, poorly fitted or top-dose-only effect; inactive = flat fitted curve, though single readings scatter. Potencies beside an inconclusive call are fits to weak or partial responses and may not hold up.

Molecular target: Microtubule-associated protein tau (Homo sapiens) (UniProt P10636)
Sequence of UniProt P10636 (P10636 whole entry, looked up): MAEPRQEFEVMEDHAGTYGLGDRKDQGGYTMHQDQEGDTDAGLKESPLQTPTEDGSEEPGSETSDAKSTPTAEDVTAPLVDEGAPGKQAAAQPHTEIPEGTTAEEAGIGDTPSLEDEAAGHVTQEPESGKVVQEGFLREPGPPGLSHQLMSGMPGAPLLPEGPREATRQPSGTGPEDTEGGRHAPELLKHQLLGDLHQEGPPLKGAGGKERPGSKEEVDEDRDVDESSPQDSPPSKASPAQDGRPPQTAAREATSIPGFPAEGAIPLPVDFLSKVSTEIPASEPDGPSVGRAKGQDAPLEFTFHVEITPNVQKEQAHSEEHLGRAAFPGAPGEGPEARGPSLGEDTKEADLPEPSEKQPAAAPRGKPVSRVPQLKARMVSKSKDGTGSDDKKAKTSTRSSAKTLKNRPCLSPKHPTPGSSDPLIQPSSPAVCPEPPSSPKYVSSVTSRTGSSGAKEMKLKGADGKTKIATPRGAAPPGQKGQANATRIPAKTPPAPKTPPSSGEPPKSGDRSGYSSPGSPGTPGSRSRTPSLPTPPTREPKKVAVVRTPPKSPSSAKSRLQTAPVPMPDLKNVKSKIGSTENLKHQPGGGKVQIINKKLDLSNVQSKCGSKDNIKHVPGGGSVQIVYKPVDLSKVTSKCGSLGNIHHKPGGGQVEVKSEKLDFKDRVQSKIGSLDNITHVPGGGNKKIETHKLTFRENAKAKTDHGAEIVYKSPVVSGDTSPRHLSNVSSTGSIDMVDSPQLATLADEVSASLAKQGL
Assay: qHTS for Inhibitors of Tau Fibril Formation, Thioflavin T Binding; note: nearly all actives have a fitted effect of over 55% in size
Settings: recombinant tau K18 P301L (four-repeat tau fragment), heparin-induced fibrillization, ThT fluorescence; series mostly up to 57.4 µM
How it was run: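 Heparin-induced (20 uM) aggregation of recombinant human K18 P301L tau, 15 uM unlabeled with 0.24 uM labeled, pH 7 acetate buffer, 6 hr at 37 C with compound. Fibrils quantified by 30 uM ThT fluorescence after 1 hr ambient incubation.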
% is set by controls: 0 for no effect and ±100 for the full control effect; potency is the fitted concentration of half-maximal effect; tags give direction and shape of the fitted curve.

SMILES | Potency | activity, negative = inhibition
CCOC(=O)C1CCN(C(c2ccc(SC)cc2)c2c(O)cc(C)n(Cc3ccco3)c2=O)CC1 (stereo not given) | inconclusive: 11.2 µM [inhibitor, partial curve] | 
COc1ccc(/C=C/c2nnc(NC(=O)c3ccco3)s2)cc1 | inconclusive: 1 µM [inhibitor, full curve] | 
CCOC(=O)C1CCN(C(=O)CSc2nccc(C)n2)CC1 | inactive | 
CN(/C=C/C(=C\C=[N+](C)c1ccccc1)OCCCS(=O)(=O)[O-])c1ccccc1 | inconclusive: 35.5 µM [inhibitor, single point] | 
COc1cc(C2NC(=O)c3c(sc4c3CCN(C)C4)N2)cc(Br)c1OC(=O)c1ccc(C)cc1 (stereo not given) | inconclusive: 15.8 µM [inhibitor, partial curve] | 
Cc1ccccc1-n1nc(CO)c(C(=O)NCc2cccnc2)n1 | inactive | 
CCOC(=O)c1c(-c2ccccc2)csc1NC(=O)c1cc(=O)c2ccc(C)cc2o1 | inactive | 
CC(Cl)C(=O)NNc1cccc(Cl)n1 (stereo not given) | inactive | 
Cc1cc(C)cc(NC(=S)/N=C(\N)Nc2nc(C)c3ccccc3n2)c1 | inconclusive: 2.51 µM [inhibitor, full curve] | 
COCc1[nH]nc2c1C(c1cc(OC)c(O)c(OC)c1)C(C#N)=C(N)O2 (stereo not given) | inconclusive: 39.8 µM [inhibitor, single point] | 
Cc1ccc(/C=C2\CCC(C3CCCC3)C2=O)cc1 (stereo not given) | inconclusive: 8.91 µM [inhibitor, partial curve] | 
Cc1ccc(Cn2c(CNS(=O)(=O)c3cccc([N+](=O)[O-])c3)nc3cccnc32)cc1 | inactive | 
COc1cc(OC)cc(C(=O)NCCCN2CCN(CCCNC(=O)c3cc(OC)cc(OC)c3)CC2)c1 | inconclusive: 17.8 µM [inhibitor, single point] | 
O=C(Cc1ncc(C(F)(F)F)cc1Cl)N1CCN(c2ccc(F)cc2)CC1 | inactive | 
CCn1c2ccccc2c2cc(NC(=O)COc3ccc(C)cc3C)ccc21 | inconclusive: 3.55 µM [inhibitor, full curve] | 
O=C1CCCC2=C1C(c1ccncc1)Nc1ccccc1N2 (stereo not given) | inactive | 
Cc1ccc(NC(=S)/N=C(\N)Nc2nc(C)c3cc(C)ccc3n2)c(C)c1 | inconclusive: 11.2 µM [inhibitor, partial curve] | 
O=C(NCc1ccco1)[C@@H]1CSC2c3ccccc3C(=O)N21 (stereo not given in full) | inactive | 
Cc1nn(-c2ccccc2)c(OC(=O)c2cccs2)c1S(=O)(=O)c1ccc([N+](=O)[O-])cc1 | inactive | 
C#CCNC(=O)C1=C[C@@H](c2ccc(Br)cc2)C[C@@H](OCCCCO)O1 | inconclusive: 31.6 µM [inhibitor, single point] | 
O=C1C[C@@H](O)[C@@H](O)[C@@H]2[C@H]3C(=O)N(c4ccc(F)cc4F)C(=O)[C@@H]3CC[C@@H]12 |  | inactive: -8.69% [at 11.5 µM]
O=C(c1ccc(Br)o1)N1CCN(c2ccc3nnc(-c4ccccc4)n3n2)CC1 | inconclusive: 28.2 µM [inhibitor, partial curve] | 
CCOC(=O)CC1C(=O)NCCN1c1nc2c(C)cccn2c(=O)c1/C=C1\SC(=S)N(CC(C)C)C1=O (stereo not given) | active: 10 µM | 
Cc1ccc(C)c(NC(=O)C2CCCN(c3nc4ccccc4s3)C2)c1 (stereo not given) | inactive | 

SMILES | Potency | activity, negative = inhibition
CC1CN(C(=O)N2CCC(C(=O)NCc3cccs3)CC2)c2cc(Cl)ccc2O1 (stereo not given) | inactive | 
CN(C)c1ccc(O)c2c1CC1CC3[C@@H](N(C)C)C(=O)C(C(N)=O)=C(O)[C@]3(O)C(=O)C1=C2O (stereo not given in full) | inconclusive: 3.55 µM [inhibitor, full curve] | 
CCOC(=O)COc1c(OC)cc(Cl)cc1C1Nc2ccccc2C(=O)N1c1cccc(C)c1 (stereo not given) | inactive | 
O=C(N/N=C/c1ccc2c(c1)OCO2)c1cc(-c2ccncc2)nc2ccccc12 | inactive | 
CCOC(=O)CN1C=C(c2ccc3ccccc3n2)C(C[N+](=O)[O-])c2ccccc21 (stereo not given) | inconclusive: 14.1 µM [inhibitor, partial curve] | 
Cc1ccc(C)c(NC(=O)CCC(=O)N/N=C/c2cc([N+](=O)[O-])ccc2O)c1 | inconclusive: 25.1 µM [inhibitor, partial curve] | 
O=C(NCc1cccc(F)c1)C1CCCN(C(=O)N2CCOc3ccccc32)C1 (stereo not given) | inactive | 
CN(C)CCCCOc1ccccc1F | inactive | 
O=C(N=Nc1c(O)[nH]c2ccc(F)cc12)C1COc2ccccc2O1 (stereo not given) | inconclusive: 14.1 µM [inhibitor, partial curve] | 
Cc1cc(Nc2ccccc2)nc(-c2ccccc2O)n1 | inconclusive: 17.8 µM [inhibitor, partial curve] | 
NC(=O)Cc1ccc(C(=O)c2ccc(F)cc2)s1 | inactive | 
COc1cccc(C(=O)NCCc2csc(-c3ccc(Cl)cc3)n2)c1 | inconclusive: 25.1 µM [inhibitor, partial curve] | 
Cc1cc(=O)oc2cc(O)c(N=Nc3ccccc3)cc12 | inconclusive: 1.58 µM [inhibitor, full curve, poor fit] | 
Cc1cccc(NC(=O)CCS(=O)(=O)c2cccc3nsnc23)c1C | active: 20 µM | 
CCOC(=O)C1=C(O)/C(=C/c2cc(OC)c(OC)c(OC)c2)SC1=Nc1ccc(OC)cc1 | inconclusive: 31.6 µM [inhibitor, partial curve, poor fit] | 
COC(=O)c1c(NC(=O)CCCOc2ccc(C(C)(C)C)cc2)sc2c1C(C(=O)OC)CC2 (stereo not given) | active: 8.91 µM | 
CCOC(=O)c1c(C)[nH]c(C(=O)OCCOc2ccc(Cl)cc2)c1C | inconclusive: 3.16 µM [inhibitor, full curve] | 
CCn1c(SCC#N)nc2c(c1=O)C1(CCCC1)Cc1ccccc1-2 | inactive | 
CC1Cc2cc(S(=O)(=O)NCCc3ccc(Cl)cc3)ccc2N1C(=O)C1CCC1 (stereo not given) | inactive | 
COc1ccccc1Cn1cc(C(=O)c2ccc(Cl)cc2)c(=O)c2ccccc21 | inconclusive: 1.58 µM [inhibitor, full curve, poor fit] | 
CCOc1cc(/C=C2\SC(=S)N(C(C(=O)O)c3ccccc3)C2=O)ccc1O (stereo not given) | inconclusive: 3.55 µM [inhibitor, partial curve] | 
Cc1cccc(C(=O)Nc2ccc(-c3nc4ncccc4o3)cc2C)c1 | inconclusive: 0.562 µM [inhibitor, partial curve, poor fit] | 
CCCCS(=O)(=O)NC1=NCN(Cc2ccco2)CN1 | inactive | 
CCOC(=O)C1C(=O)C=C(/C=C/c2ccc(N(C)C)cc2)CC1c1ccccc1 (stereo not given) | inconclusive: 3.16 µM [inhibitor, full curve] | 

SMILES | Potency | activity, negative = inhibition
CC(=O)c1ccccc1OCCCN1CCCCC1 | inconclusive: 15.8 µM [inhibitor, partial curve] | 
CCn1c(NCc2cc(Cl)ccc2O)nc2ccccc21 | inconclusive: 39.8 µM [inhibitor, single point] | 
O=C(OCCCCN1C(=O)c2ccccc2C1=O)c1n[nH]c2ccccc12 | inactive | 
O=C1c2ccccc2C(=O)C1c1ccccc1 | inconclusive: 31.6 µM [inhibitor, partial curve] | 
CCCCOc1ccc(C(=O)Nc2ccc3oc(-c4cccnc4)nc3c2)cc1 | inconclusive: 2.24 µM [inhibitor, partial curve] | 
COc1cc(C2N(c3ccccc3)CCN2c2ccccc2)cc(OC)c1OC | inconclusive: 25.1 µM [inhibitor, partial curve] | 
COc1ccc2c(COC(=O)CC3Sc4ccccc4NC3=O)cc(=O)oc2c1 (stereo not given) | inconclusive: 0.355 µM [inhibitor, full curve] | 
COc1ccccc1NC(=O)CSc1nc2ccccc2n1C(C)=O | inactive | 
c1csc(Cc2nn3c(-c4n[nH]c5c4CCC5)nnc3s2)c1 | inconclusive: 15.8 µM [inhibitor, partial curve] | 
CCn1c(CNc2ccccc2Cl)nnc1SCCN1CCCCC1 | inconclusive: 5.62 µM [inhibitor, partial curve, poor fit] | 
COc1cc(/C=N/NC(=O)/C(=C\c2ccc3c(c2)OCO3)NC(=O)c2ccccc2)ccc1O | inconclusive: 31.6 µM [inhibitor, single point] | 
Cc1nnc(NC(=O)CSc2n[nH]c(-c3ccccc3)n2)s1 | inactive | 
Nc1c(C(=O)NCCN2CCOCC2)c2nc3ccccc3nc2n1CCc1ccccc1F | inconclusive: 35.5 µM [inhibitor, single point] | 
COc1cc2[nH]c(=O)n(CCCCCC(=O)N3CCN(c4ccccn4)CC3)c(=O)c2cc1OC | inconclusive: 2.24 µM [inhibitor, full curve] | 
COc1cc(/C=C2\SC(c3ccccc3)=NC2=O)cc(Cl)c1O | active: 4.47 µM | 
CCCn1c(=O)c2sccc2n2c(CCCC(=O)NC3CCC(C)CC3)nnc12 (stereo not given) | inactive | 
O=C(N/N=C/c1cccc(O)c1)c1ccc(COc2ccc3c(c2)CCC3)o1 | inconclusive: 1.78 µM [inhibitor, full curve] | 
CCOC(=O)c1cccc(NC(=O)c2cnc3ccccc3n2)c1 | inconclusive: 25.1 µM [inhibitor, partial curve] | 
Cc1ccsc1/C=N/N1CCN(C2c3ccccc3-c3ccccc32)CC1 | inactive | 
COc1ccc(NS(=O)(=O)c2cc(NC(=O)C3CC3)ccc2N2CCOCC2)cc1 | inactive | 
OCCN(CCO)c1ccc(C(c2ccccc2Cl)c2ccc(N(CCO)CCO)cc2Cl)c(Cl)c1 | inconclusive: 25.1 µM [inhibitor, single point] | 
Cc1c([C@@H]2C[C@H]3CN(Cc4cccc(Cl)c4)C(=O)[C@]34CCCN24)cnn1C | inconclusive: 15.8 µM [inhibitor, partial curve] | 
